In publication PMC9641999, “Cryo-EM samples of gas-phase purified protein assemblies using native electrospray ion-beam deposition” (Faraday discussions, 2022):

Biological target: the molecule itself
Assay: native MS; non-activating native electrospray on a Q Exactive UHMR; 200 mM ammonium acetate pH 6.9; 5 μM ADH, 10 μM β-gal, 8 μM ferritin, 5 μM GroEL (concentrations of the most abundant oligomers)

B1: GroEL (natural protein)
chain: not shown
notes: GroEL (chaperonin 60), Sigma Aldrich C7688-1MG; native tetradecamer selected by mass; also called chaperonin 60; source: bought: Sigma Aldrich (C7688-1MG), reconstituted from lyophilized powder; desalted into 200 mM ammonium acetate; copies: 14
- stoichiometry N: 14
